This note sets out measurements from ChEMBL document CHEMBL4888484, “Replenishing the malaria drug discovery pipeline: Screening and hit evaluation of the MMV Hit Generation Library 1 (HGL1) against asexual blood stage Plasmodium falciparum ,using a nano luciferase reporter read-out” (2022).

What is called % Inhibition is the relative decrease from the control value, in per cent.

Hit rate of the full screen: of about 4,800 compounds, about 410 (8.5%) showed an effect of 50% or more. The list shows a part of the results.

For the assay, the system named is Plasmodium falciparum. Kind of assay: Confirmatory screen in NF54 pLDH assay, in single point, at 2uM, 72h. Format: functional, Erythrocyte. Particulars: timepoint 72 hour.
Regarding `CCNC(=O)CNC(=O)Nc1cnn(C(C)C)c1`, the “% Inhibition” value was 7%.

With `C[C@@H](C(=O)NCCN1CCCCC1)N1C(=O)COc2ccc(C(=O)COc3ccc(Cl)cc3)cc21`, the “% Inhibition” value was -9%.

Turning to `O=C(C[C@H]1CCN(S(=O)(=O)c2ccc(F)cc2F)C1)NCc1ccccc1`, the “% Inhibition” value came to 10%.

Take `O=c1cc2c(nn1Cc1cccc(Cl)c1)-c1ccccc1CC2`: the “% Inhibition” value worked out at 1%.

On to `COc1ccc(CNc2nc(-c3nnc(-c4ccccc4)o3)nc3ccccc23)cc1`, for which the “% Inhibition” value is recorded as -3%.

In the case of `CS(=O)(=O)N(CCCC(=O)NCc1ccc2c(c1)OCO2)c1ccc(F)cc1`, the “% Inhibition” value is given as 11%.

In the case of `Cn1ncnc1CNC(=O)NCC1(Cc2ccccc2)CCC1`, the “% Inhibition” value is -2%.

Regarding `O=C1C2CCCCC2C(=O)N1c1cnn(Cc2cccc3ccccc23)c1` (stereo not drawn), the “% Inhibition” value is listed as 10%.

Consider `COc1ccc(-c2cc3nc(C)cc(N4CCN(C/C=C/c5ccccc5)CC4)n3n2)cc1OC`, for which the “% Inhibition” value was determined as 37%.

Take `Cc1nc(O)ccc1C(=O)N[C@H](c1ccc(Cl)cc1)c1ncon1`: the “% Inhibition” value is reported as -5%.

Regarding `CCn1nc(C)c(C(=O)Nc2cn(C)nc2C(N)=O)c1C`, the “% Inhibition” value is given as -14%.

On to `COc1cc(C(=O)NC2CC(C)(C)NC(C)(C)C2)ccc1OCc1ccccc1Cl`, for which the “% Inhibition” value was 11%.

Consider `Oc1ccccc1CNc1cccc2cccnc12`, for which the “% Inhibition” value is 97%.

In the case of `Cc1c(S(=O)(=O)NCc2cc3c(s2)CCCC3)cnn1C`, the “% Inhibition” value is listed as 11%.

Take `Cc1nc2cc(NC(=O)c3cccs3)ccc2o1`: the “% Inhibition” value is given as -5%.

Take `CCOc1cc(CNC2CCCCC2)cc(Cl)c1OCc1ccc(C)cc1`: the “% Inhibition” value is -4%.

Regarding `O=c1[nH]cnc2c1nc(N1CCCCC1)n2C1OC(CO)C(O)C1O` (stereo not drawn), the “% Inhibition” value is 3%.

In the case of `O=C(C[C@@H]1C(=O)Nc2nc(N3CCOCC3)[nH]c(=O)c21)Nc1ccc(Cl)cc1`, the “% Inhibition” value is 4%.

Turning to `Cc1cc(CN(C)C[C@@H]2C[C@H]2c2ccccc2)no1`, the “% Inhibition” value is given as 1%.

Take `O=C(Nc1ccc(F)cc1)c1c(O)c2cccc3c2n(c1=O)CC3`: the “% Inhibition” value is reported as -20%.

Regarding `Cc1ccccc1NC(=O)N1CCN(C(=O)c2nonc2N)CC1`, the “% Inhibition” value is on record as -17%.

Regarding `CCn1cc(Cl)c(C(=O)N2N=C3/C(=C/c4ccc(C)cc4)CCCC3C2c2ccc(C)cc2)n1` (stereo not drawn), the “% Inhibition” value was determined as 6%.

Consider `O=C(NCc1ccco1)[C@H]1CCCN(c2nc3ccccc3n(Cc3ccccc3)c2=O)C1`, for which the “% Inhibition” value was 9%.

For `O=C(CNC(=O)[C@H]1CC[C@H](CNS(=O)(=O)c2ccccc2)CC1)N1CCN(c2ccccc2)CC1`, the “% Inhibition” value is given as 14%.

On to `COc1cccc(-c2cn(C)c3c(=O)n(CC(=O)Nc4ccccc4Cl)cnc23)c1`, for which the “% Inhibition” value was -4%.

Consider `COCCN(CC1CN(Cc2ccccc2OC)CC1c1ccccc1OC)C(=O)COC` (stereo not drawn), for which the “% Inhibition” value was 0%.

For `CCC(C)(C)C(=O)NCC1CCN(S(=O)(=O)C(F)F)CC1`, the “% Inhibition” value was -6%.

As to `COC(=O)[C@H](C)N(C(=O)CO)c1c(C)cccc1C`, the “% Inhibition” value is on record as 10%.

On to `COC(=O)c1nccc(N2CCc3ccccc3C2)n1`, for which the “% Inhibition” value was -5%.

As to `COc1ccc2nc(N3CN(Cc4ccccc4)CN(c4nc5ccc(OC)cc5s4)C3)sc2c1`, the “% Inhibition” value was 1%.

Take `FC(F)(F)c1cnc(Cc2ccc(OC[C@H]3CC3(Cl)Cl)cc2)c(Cl)c1`: the “% Inhibition” value stood at 11%.

For the molecule `Cc1ccc(NC(=O)N2CC(c3nc(C(C)C)nn3C)C2)cc1F`, the “% Inhibition” value was -1%.

For the molecule `CCNC(=O)CN(CC)C(=O)COc1ccc(Cl)c(C)c1`, the “% Inhibition” value turned out to be 7%.

As to `CC(C)(C)NC(=O)N[C@H]1COc2c1ccc(Cl)c2Cl`, the “% Inhibition” value was -3%.

Consider `Cc1cc(C)c(N2CCC(NC(=O)C(C)n3cncn3)C2=O)c(C)c1` (stereo not drawn), for which the “% Inhibition” value amounted to 12%.

`O=S(=O)(c1ccccc1)N1CCC(Nc2ccc(Br)cc2)CC1`: the “% Inhibition” value came to 12%.

As to `Cc1cnn(CC(=O)NC[C@]2(N3CCOCC3)CCOC2)c1`, the “% Inhibition” value was -9%.

For the molecule `Cn1nccc1CS(=O)(=O)c1ccc(F)c(F)c1`, the “% Inhibition” value is listed as -5%.

For `CC(C)(NC(=O)CC1CCC(F)(F)CC1)c1nc2ccccc2s1`, the “% Inhibition” value was 8%.

Consider `Cc1ccc(C)c(NC(=O)CC(=O)O)c1`, for which the “% Inhibition” value is reported as -8%.

Take `C1=CCC(c2nc(-c3cnccn3)no2)C1`: the “% Inhibition” value is -2%.

Regarding `Cc1cc(C(=O)NCc2cnn(C)c2C)nc(N2CCOCC2)n1`, the “% Inhibition” value stood at 10%.

For the molecule `CCC(=O)N1CCc2sc(C(=O)NC3CCN(Cc4ccccc4)CC3)cc2C1`, the “% Inhibition” value worked out at 3%.

As for `Cc1ccc(F)cc1NC(=O)N1CCC12CCC2`, the “% Inhibition” value is 11%.

On to `CCN1c2cc(C(=O)NCc3ccccc3)ccc2C(=O)N2CCCC[C@H]21`, for which the “% Inhibition” value worked out at 7%.

Turning to `Cc1nnc(NS(=O)(=O)c2c(C)sc3ccccc23)s1`, the “% Inhibition” value came to 7%.

In the case of `Nc1c(Cl)cc(Cl)c(N)c1Cl`, the “% Inhibition” value is reported as -20%.

Consider `FCCn1ncnc1CN1CCCCC[C@H]1C1CCCCC1`, for which the “% Inhibition” value was -6%.

Turning to `Cc1ccc(NC(=O)c2ccc3c(-c4ccccc4)onc3c2)cc1C`, the “% Inhibition” value was -11%.

Take `Cc1cc(C)n(S(=O)(=O)c2ccc3c(c2)OCCO3)n1`: the “% Inhibition” value came out at 7%.

Take `CC(C)(C)c1cc(N)c2ccccc2n1`: the “% Inhibition” value is -6%.

Take `O=C(O)c1csc(-c2csc(CCN3C(=O)c4ccccc4C3=O)n2)n1`: the “% Inhibition” value worked out at 13%.

As for `O=C(COc1ccccc1)N1CC[C@H](c2nc(C3CCOCC3)no2)C1`, the “% Inhibition” value was 11%.

On to `Cc1ccc(Cn2c(=O)c(N3CCC[C@H](C(=O)NCCc4ccco4)C3)nc3ccccc32)cc1`, for which the “% Inhibition” value turned out to be 9%.

In the case of `CC1(C)C2OCCCC2C1(N)C(=O)Nc1cn[nH]c1` (stereo not drawn), the “% Inhibition” value came out at 10%.

For the molecule `CC(CO)(CO)NC(=O)c1ccc(Br)cc1`, the “% Inhibition” value is on record as 13%.

For the molecule `Fc1cccc(F)c1-n1c(COc2ccc(Cl)cc2)csc1=S`, the “% Inhibition” value is recorded as -5%.

Consider `COC(=O)[C@@H]1[C@@H](NC(=O)C2CCCC2)CCN1C(C)=O`, for which the “% Inhibition” value is 1%.

With `C[C@H](C(=O)NCCc1ccccc1)C1CCOCC1`, the “% Inhibition” value is -1%.

`NC(=O)C1CCCCCC1NC(=O)c1nccnc1N` (stereo not drawn): the “% Inhibition” value was -7%.

Turning to `c1cncc(CN2CCN(C3CCCCCC3)CC2)c1`, the “% Inhibition” value is listed as 12%.

As to `Cc1ccc(C(=O)Nc2ccc(N3CCN(CCC#N)CC3)cc2C(=O)O)cc1`, the “% Inhibition” value is reported as -6%.

For `N#CC(c1nc2ccccc2s1)c1nc2ccccc2s1`, the “% Inhibition” value was -5%.

As to `CCCNC(=O)c1cn2ccnc(-c3ccc(C)cc3)c2n1`, the “% Inhibition” value turned out to be 9%.

`O=C(c1sc2ccccc2c1Cl)n1nnc2ccccc21`: the “% Inhibition” value is recorded as 3%.

Consider `O=C(Nc1ccc2c(c1)CNCC2)C1CC1c1ccc(F)c(F)c1` (stereo not drawn), for which the “% Inhibition” value was 15%.

`CCN(c1ccc(C(=O)N(C)C2(C#N)CCC2)cc1)C(C)C`: the “% Inhibition” value is 7%.

On to `COCc1cc2nn(CC(=O)Nc3ccc(F)cc3C)c(=O)n2c(-c2ccccc2)n1`, for which the “% Inhibition” value is -20%.
